# This is one part of the list. Repeats are few or missing, and single values can be far off.
# What was measured:
# Assay in all cases: cell count relative to DMSO control; melanoma cells; higher = more viable cells
# Settings in all cases: library dose: low library concentration; 72 h
# [1] = tested on: MeWo
# [2] = tested on: RPMI7951
# [3] = tested on: RVH-421
# [4] = tested on: SkMel28
# [5] = tested on: SkMel2
# [6] = tested on: SkMel30
# [7] = tested on: SkMel5
# [8] = tested on: UACC257
# [9] = tested on: UACC62
# [10] = tested on: MZ2-MEL
# 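Further: cell number obtained by counting DAPI-stained nuclei in high-throughput microscope images with image analysis software, screen run in 1,536-well plates.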
SMILES,cell count [1] [%],cell count [2] [%],cell count [3] [%],cell count [4] [%],cell count [5] [%],cell count [6] [%],cell count [7] [%],cell count [8] [%],cell count [9] [%],cell count [10] [%]
"Cc1cc(Nc2cc(N3CCN(C)CC3)nc(/C=C/c3ccccc3)n2)n[nH]1 + COc1cc2ncnc(Nc3ccc(Oc4ccccc4)cc3)c2cc1OC [SrcI1] (first compound 0.04 µM, partner dose 2 µM)",85.4,110,85.9,81.5,98.4,109,93.5,105,96.8,–
"CC(C)C[C@H](NC(=O)[C@H](Cc1ccccc1)NC(=O)c1cnccn1)B(O)O [Bortezomib] + Cn1cncc1[C@@](N)(c1ccc(Cl)cc1)c1ccc2c(c1)c(-c1cccc(Cl)c1)cc(=O)n2C [tipifarnib] (first compound 0.001 µM, partner dose 0.01 µM)",86.4,46.8,50.2,80.5,–,88.5,95.2,83.9,72.7,–
"Cc1cc(Nc2cc(N3CCN(C)CC3)nc(/C=C/c3ccccc3)n2)n[nH]1 + CN1CCN(c2ccc3nc(-c4c(N)c5c(F)cccc5[nH]c4=O)[nH]c3c2)CC1 [Dovitinib] (first compound 0.04 µM, partner dose 0.1 µM)",93.4,105,85.1,95,92.7,67.3,–,–,89.5,88.3
"Cc1cc(Nc2cc(N3CCN(C)CC3)nc(/C=C/c3ccccc3)n2)n[nH]1 + NCC(=O)Nc1ccc(-n2nc(C(F)(F)F)cc2-c2ccc3c(ccc4ccccc43)c2)cc1 [OSU03012] (first compound 0.04 µM, partner dose 1 µM)",65.1,125,102,75.1,92.7,48.2,107,95.2,81.5,–
"Cn1c(=O)n(-c2ccc(C(C)(C)C#N)cc2)c2c3cc(-c4cnc5ccccc5c4)ccc3ncc21 + CC(C)(C)c1cnc(CSc2cnc(NC(=O)C3CCNCC3)s2)o1 [SNS-032] (first compound 0.004 µM, partner dose 0.01 µM)",85.2,95.6,92.1,75.6,–,98.6,106,96.3,95.2,–
"Cn1c(=O)n(-c2ccc(C(C)(C)C#N)cc2)c2c3cc(-c4cnc5ccccc5c4)ccc3ncc21 + CO[C@H]1C[C@@H]2CC[C@@H](C)[C@@](O)(O2)C(=O)C(=O)N2CCCC[C@H]2C(=O)O[C@H]([C@H](C)C[C@@H]2CC[C@@H](OCCO)[C@H](OC)C2)CC(=O)[C@H](C)/C=C(\C)[C@@H](O)[C@@H](OC)C(=O)[C@H](C)C[C@H](C)/C=C/C=C/C=C/1C [everolimus] (first compound 0.004 µM, partner dose 0.02 µM)",44.6,65.6,58.3,34.2,–,44.9,–,–,39.4,45.7
"Cc1cn(-c2cc(NC(=O)c3ccc(C)c(Nc4nccc(-c5cccnc5)n4)c3)cc(C(F)(F)F)c2)cn1 [nilotinib] + C[C@]1(c2nc3c(C(N)=O)cccc3[nH]2)CCCN1 [Veliparib] (first compound 0.2 µM, partner dose 1.4 µM)",95.5,84,78.9,92.5,85.7,91.3,–,–,95.1,95.9
"Cc1cc(Nc2cc(N3CCN(C)CC3)nc(/C=C/c3ccccc3)n2)n[nH]1 + COCC[n+]1c2c(n(Cc3cnccn3)c1C)C(=O)c1ccccc1C2=O [YM155] (first compound 0.04 µM, partner dose 0.0004 µM)",98,76.8,84.7,111,89.1,91.4,–,–,89.7,56.6
"COc1ccc(C2=N[C@@H](c3ccc(Cl)cc3)[C@@H](c3ccc(Cl)cc3)N2C(=O)N2CCNC(=O)C2)c(OC(C)C)c1 [Nutlin-3] + Cn1nnc2c(C(N)=O)ncn2c1=O [temozolomide] (first compound 0.1 µM, partner dose 2 µM)",90.3,87.3,138,77,108,99.4,–,–,66.8,106
"CC(C)C[C@H](NC(=O)[C@H](Cc1ccccc1)NC(=O)c1cnccn1)B(O)O [Bortezomib] + CCN(CC)CCCCNc1ncc2cc(-c3cc(OC)cc(OC)c3)c(NC(=O)NC(C)(C)C)nc2n1 [PD173074] (first compound 0.001 µM, partner dose 0.1 µM)",83.2,108,126,95,–,90,103,77.4,94.7,–
"Cc1cc(Nc2cc(N3CCN(C)CC3)nc(/C=C/c3ccccc3)n2)n[nH]1 + CN(NC(=O)CC(=O)NN(C)C(=S)c1ccccc1)C(=S)c1ccccc1 [STA4783] (first compound 0.04 µM, partner dose 0.006 µM)",87,115,110,93.7,–,98.4,75.4,75.4,90.7,–

# Reference: the supplement of paper PMC4604168 (melanoma cell lines)
